Measured values reported in article PMC11245519, “Ubiquitous purine sensor modulates diverse signal transduction pathways in bacteria” (Nature Communications, 2024).

Assays:
R11 (WP_162024566-LBD) [1] = experiment: Thermal shift assay of the R11 LBD; format: binding, Lentimonas sp. CC4; conditions: change in Tm, threshold 2 °C
R10 (WP_110129388-LBD) = format: binding, Coraliomargarita sinensis; conditions: change in Tm, threshold 2 °C; 2 mM ligand (Supplementary Fig. 7)
R11 (WP_162024566-LBD) [2] = experiment: Microcalorimetric titration (ITC) of the R11 LBD with ligands; format: binding, Lentimonas sp. CC4; conditions: 25 °C, pH 7.0, 1 mM β-mercaptoethanol, read-out: Dissociation constant, R11
McpH-LBD D169N = McpH-LBD D169N (Pseudomonas putida, UniProt Q88R14, D169N); experiment: biochemical; format: binding; conditions: ITC, 25 °C, pH 6.0, ligand adenine (2 mM)
Chain of McpH-LBD D169N (Q88R14 51-276 D169N): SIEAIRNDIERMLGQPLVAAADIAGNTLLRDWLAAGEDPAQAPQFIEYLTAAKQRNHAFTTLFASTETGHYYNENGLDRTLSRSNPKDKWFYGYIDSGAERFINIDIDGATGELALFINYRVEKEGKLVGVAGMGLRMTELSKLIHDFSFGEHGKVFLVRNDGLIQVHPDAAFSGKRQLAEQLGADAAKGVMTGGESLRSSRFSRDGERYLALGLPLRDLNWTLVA

## Nc1nc2nc[nH]c2c(=O)[nH]1 [Guanine]
R11 (WP_162024566-LBD) [1]
  Binding in thermal shift assay, R11: Nts^b (no binding observed in thermal shift assays, i.e., compounds caused changes in the midpoint of protein unfolding (Tm) of less than 2 °C)
R10 (WP_110129388-LBD)
  Binding in thermal shift assay, R10: Nts^b (no binding observed in thermal shift assays, i.e., compounds caused changes in the midpoint of protein unfolding (Tm) of less than 2 °C)

## O=c1[nH]cnc2c1ncn2[C@@H]1O[C@H](CO)[C@@H](O)[C@H]1O [Inosine]
R10 (WP_110129388-LBD)
  Binding in thermal shift assay, R10: Tsa^c (binding observed in thermal shift assays, i.e., compounds caused changes in Tm of more than 2 °C)

## Nc1ncnc2[nH]cnc12 [Adenine]
R11 (WP_162024566-LBD) [2]
  Kd: 72 ± 13 µM
McpH-LBD D169N
  Kd: 209 ± 45 µM
